Some of the results follow.

The values below come from the supplement of paper PMC11417369.

This assay has as its system PfAP2-HC AP2 domain (GST-tagged). Put plainly: gcPBM binding intensity (ln(normalized median fluorescence intensity)); higher = stronger DNA binding. The gist of the method: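 After 1 h on an Agilent 4 × 180k array of primer-extended double-stranded 36-bp intergenic genomic probes and negative controls, bound GST-tagged P. falciparum DNA-binding domains were detected with Alexa488 anti-GST antibody and scanned at 488 nm. The domains had been expressed in E. coli, and binding took place in 1× PBS with 1% milk, 0.2 mg/ml BSA, 0.5% salmon testes DNA and 0.03% Triton X-100. Binding intensity is the highest Masliner-normalised natural-log median intensity across replicate spots of either probe orientation.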
As for “AAGAACCATATTTAAACACACATACCTATATAAATA [CACACA_site7553]”, the “gcPBM binding intensity (ln)” value came to 9.88.
For the sequence “TACAATATAAAATACACACACACAAACATATATTTA [CACACA_site5941]”, the “gcPBM binding intensity (ln)” value was 10.5.
Under “TATATATATTTATAATGTACACATATATGTAAATAT [XGTACX_site3695]” stands 9.66; under “TGCCCTAACCATACTACACACACTGCTCAAAATAGT [CACACA_site2219]”, 10.6; under “ATACGAATAAATTTCGCATGCAGCATATATATCAAT [TGCATGCA_site612]”, 9.62.
As to “TGTACAAATATGTTGAAAATAAAATTTCAATATATT [XGTACX_negctrl_site13]”, the “gcPBM binding intensity (ln)” value was 9.32.
Under “AACGAAAATAAGAAAAGTACAAAAAATACCAAATAA [XGTACX_site6171]” stands 9.76; under “ATATATATATATAATACACACTTATGAAATGTCTAA [CACACA_site5077]”, 9.84.
Turning to “TTAATACATACATTCACACACACTAATTGTATATTT [CACACA_site9362]”, the “gcPBM binding intensity (ln)” value worked out at 10.3.
As to “TTCTTTTTTCGACACACACACACAAGAAGATATATA [CACACA_site7456]”, the “gcPBM binding intensity (ln)” value worked out at 10.5.
With “TAAATTATAAATTGCACACATATTTTTATATTTATA [CACACA_site2976]”, the “gcPBM binding intensity (ln)” value is 9.77.
With “ATATTTTTAGATTCAGAAAAAAGATTCAACTTACTC [CACACA_negctrl_site1357]”, the “gcPBM binding intensity (ln)” value was 9.42.
For the sequence “TATTTCATATGAAGAAGTACTATTAATAATTTCCTT [XGTACX_site6587]”, the “gcPBM binding intensity (ln)” value was determined as 9.48.
Under “ATATATGCATATATATGTACATATATATATATATAT [XGTACX_site7403]” stands 9.66.
On to “AATAAATAAAAAATTACACACATATATATAAATATA [CACACA_site3434]”, for which the “gcPBM binding intensity (ln)” value is 9.85.
Under “AAAAATAAAGGGTGTGCACACAAAAATATATATATA [CACACA_site1727]” stands 11; under “ATAATATATTTAATCATACACACATTTATGTACCTA [CACACA_site1719]”, 9.88; under “TTTTTTTTTAAAACATAATAAAAAATAAAACAACCT [GTGCAC_negctrl_site92]”, 9.32.
Regarding “CAAAAATAATAGAATACATGCAAAAATAAATGTATA [TGCATGCA_site196]”, the “gcPBM binding intensity (ln)” value came to 9.71.
For the sequence “TACAATAATGATTGTTGTACATTATTGATATTTAAA [XGTACX_site2940]”, the “gcPBM binding intensity (ln)” value amounted to 9.5.
The same measure for TTTAATTTTTAATCAGTGCAATATTATATAATATAT: 9.53; for “AAAAAAAAACAGAAAACACACAAATTATCTTAGAAT [CACACA_site309]”: 9.87; for “AATAATTCATCATATGCACACACAATACCAAAATGT [CACACA_site7945]”: 10.5.
Under “TATATGAAATATTATGCACACAATATATAATATGAT [CACACA_site936]” stands 9.84; under “ATTAATTCGTTTTGTACACACATAATGAATAATTTA [CACACA_site2235]”, 9.75; under “TCATTTTAATTAAAAGTGCAAAAAATAATATAACTA [GTGCAC_site9968]”, 9.56.
Take “ATATATATATATATATGTACATATATATTGTTGATC [XGTACX_site8893]”: the “gcPBM binding intensity (ln)” value amounted to 9.77.
For “ACATATTATTCAAGTGCACACTTTATATTTATGATT [CACACA_site3295]”, the “gcPBM binding intensity (ln)” value was found to be 9.82.
In the case of “ATTTAATTCGTACATACACACGCACATATATATATA [CACACA_site8415]”, the “gcPBM binding intensity (ln)” value was found to be 10.1.
Turning to “GAATTTCGATATATGTGTACGCATTTGTATTATAGG [XGTACX_site6332]”, the “gcPBM binding intensity (ln)” value came out at 9.68.
The same measure for “TACATATTGCACAAATAAAAAAGAACAAAAAAAAAA [CACACA_negctrl_site1200]”: 9.53; for “ATATATATATATATATGTACATATATTCGATTATTA [XGTACX_site557]”: 9.65.
Under “ATAATATTTCTTACCTTTGGATGTTCTAATTTTTTT [CACACA_negctrl_site1317]” stands 9.73; under “TACTTTATATTATATATATATATATATATATATATA [CACACA_negctrl_site1765]”, 9.57; under “AAAAATAACATATAAACACACATATATATATATATA [CACACA_site3802]”, 10.1.
Under “TATATAAAATAATAATGTACTCATTAAAATTATAGA [XGTACX_site4507]” stands 9.48; under “AAAGAAAAAAAAAAAAAAAAAAAAAAAATTATACAT [CACACA_negctrl_site7]”, 9.39; under ATGTATCCAATAGGAGTGCATAATTCTATTAACACC, 9.66.
As to “AAACGAACATATAAATGTACATATATATACATATAT [XGTACX_site8086]”, the “gcPBM binding intensity (ln)” value was found to be 9.79.
Under “AATTAAATATTATAAACACACATATATATTATTTTT [CACACA_site865]” stands 9.71; under “TATGTATTAAATTTTACACACATGATTCTCTATATA [CACACA_site2298]”, 9.96; under ATTGTAAATATAGAAGTGCAAAAGGGTATGAAATGA, 9.86.
In the case of “TACAAAAAAAATGTATTTAGGACATATATATGTTTA [XGTACX_negctrl_site455]”, the “gcPBM binding intensity (ln)” value came to 9.45.
The same measure for “TACATAAAATATATCACACATATAATATATATATAT [CACACA_site5834]”: 9.68; for “AAAAAAAAAAAAAAATATAAATATATATATATATAT [GTGCAC_negctrl_site28]”: 9.3.
In the case of “AGTGTAATTTTCCACTGTACTTTTCTTGTATATAAT [XGTACX_site4201]”, the “gcPBM binding intensity (ln)” value stood at 9.67.
With “AAAGTAACACACTAATATTTTAACAAATAATATATA [GTGCAC_negctrl_site132]”, the “gcPBM binding intensity (ln)” value came to 9.85.
The same measure for “ATATATATTAATATTTGTACATAAAATTATTTCAAT [XGTACX_site5364]”: 9.46; for “AATACATTTATGAGCTGTACACATTTATTTGAGCTA [XGTACX_site7695]”: 9.59; for “TTATATCATTTTCCTGCACACATAAATTTATATAAT [CACACA_site8257]”: 9.94.
Regarding “ACAAAATATACAAAATGTACAAAATATACAAAATGT [XGTACX_site6467]”, the “gcPBM binding intensity (ln)” value worked out at 9.76.
For “CATATGTATTTATTCACACATATATATATATATATA [CACACA_site4207]”, the “gcPBM binding intensity (ln)” value came out at 9.68.
Under “TTATTCTAAAAGTGTTTGCACTTTTATAATCATATA [GTGCAC_site9929]” stands 9.53; under “TATACAGATAAATACACACACACATATATATATATA [CACACA_site4845]”, 11.2; under “AATAATAATTTGAATACACACAATAATATATATATA [CACACA_site2059]”, 9.84.
Under “ATACAAAAAATCACATGTACATATTCTTAAATGGTA [XGTACX_site8502]” stands 9.65.
As to “CACAAATATACAAATACACACAAATATACTCATATA [CACACA_site5339]”, the “gcPBM binding intensity (ln)” value came out at 10.
The same measure for “TGTATTCCTTTTTATAGTACAATTTAAAAGTATAAA [XGTACX_site2045]”: 9.32; for “GTACGTTTCTCCAGACTGCACTATACGACTCGTACA [GTGCAC_site9771]”: 9.6; for “AGAAAGATGCAAGAAACATGCAAAAAAAAAATTTCT [TGCATGCA_site725]”: 9.48.
In the case of “AGCCACGGGTTATATACACACATAATCAAATAAAAT [CACACA_site6117]”, the “gcPBM binding intensity (ln)” value was 10.1.
Under “TATGTAATAAAATATACACACAATATACTTATATAT [CACACA_site3682]” stands 9.78; under ATTTTTAATGGATAAGTGCATAATATTATGATGCAA, 9.74.
As for “AAAAAATTATATAATAATAGAACTATACATTTTATT [GTGCAC_negctrl_site645]”, the “gcPBM binding intensity (ln)” value is 9.55.
Under “ACATAATATATATATTGTACAAATATATTATTGTTA [XGTACX_site3385]” stands 9.55; under “AGCTATATAAATAATACATGCATTGTTCAGGTATTT [TGCATGCA_site964]”, 9.65; under ATTTATAATATTCAAGTGCATATATATTTTTTACTT, 9.71.
The same measure for “TAAAGAAATTCTTCATGTACTTATTATTTCTCTTTT [XGTACX_site6817]”: 9.59.
The same measure for “GTTATACAAAATAATACATGCATGTCCTACATATAT [TGCATGCA_site320]”: 10.3; for “TATGGAATAAATTTATCCATACATCTTATAACATAT [XGTACX_negctrl_site500]”: 9.63; for “TACATAAATTAATAGTCACACACGTATTTTTTATAT [CACACA_site8806]”: 9.87.
With “TAGTTCCTCAAAAATTTCCTTTGTCATTTTATTCAC [GTGCAC_negctrl_site20]”, the “gcPBM binding intensity (ln)” value stood at 9.57.
As for “ATTTTTTTATTTTGAAGTACATAAACTTTATATATA [XGTACX_site1746]”, the “gcPBM binding intensity (ln)” value is 9.58.
The same measure for “ATTACATATGTCGCTTGTACGCATAATTTTTTTATA [XGTACX_site5782]”: 9.82; for “ATTTAAAAAAAAAGACGTACATTTATATAGAATCCT [XGTACX_site6457]”: 9.59; for “TTTATATTTAAAGAAACATGCATTTATCATATATAC [TGCATGCA_site173]”: 9.59.
Turning to “TACACGCATAAACACACACACACACCCATATATATA [CACACA_site8114]”, the “gcPBM binding intensity (ln)” value amounted to 11.3.
Under “CAATTTATAAAGAAAACACACATATACCTATATACA [CACACA_site6710]” stands 9.85; under “TCTATAATATTTTTCACACACCATTTCCTTAAACAC [CACACA_site6747]”, 9.91.
Regarding “AAAAAAATAAAATACAAAATGGCTATACAAAATAAA [GTGCAC_negctrl_site535]”, the “gcPBM binding intensity (ln)” value was determined as 9.82.
In the case of “TTTGTTGACGAACACACACACATACATATTTATATA [CACACA_site7141]”, the “gcPBM binding intensity (ln)” value was determined as 10.7.
Turning to “TTTTCCTTTCACAATGGTACACAAATATACATGCAA [XGTACX_site7244]”, the “gcPBM binding intensity (ln)” value is 9.56.
Under “ATTTTTTTTCGTAATTGTTCTTAATGTTGAATTATA [CACACA_negctrl_site1135]” stands 9.68; under “TAGTAATATGTATCCATACACACATACATTTTATTT [CACACA_site873]”, 9.94; under “AAAAAATATACATATTGTACATTTTTTATTAACACA [XGTACX_site6415]”, 9.53.
As for “ATAAATTTACATTTTTTTTTTTTTTTTTTTTTTTTT [GTGCAC_negctrl_site689]”, the “gcPBM binding intensity (ln)” value worked out at 9.31.
Under GTATAGTACAAATAAGTGCATATAAAAGAAATACAG stands 9.87; under “TAATTTTTATTCAGTTCACACACGCTTTAATATTAT [CACACA_site9147]”, 9.94.
The same measure for “ATTACCAAAAAAAGGTGTACAAATATAATTATGAAA [XGTACX_site44]”: 9.73.
